From US7989590B2, “Peptides that increase collagen or hyaluronic acid production” (Rohto Pharmaceutical Co., Ltd, priority 2005, dated 2011)
At least one peptide structure holds a part that was inferred or is arguable (an end, a ring closure or a residue). Where a SMILES comes first, the peptide text is derived from it. Where no end group is shown, it is not given here.

What was measured:
[1] = test system: Fibroblasts derived from human normal skin (CRL-1836; ATCC); experiment: Assay for production of collagen in skin fibroblast (type I collagen in culture solution, EIA); format: cell-based; details: for Amount of Production of Collagen (%): 72 hours of culture, control = 100%; for amount of production of collagen, result in words: versus control; for enhancing effect for production of collagen, result in words: LEH and LEHA peptides prepared from soy protein as in Example 5, stated in present tense
[2] = test system: Normal human epidermal keratinocytes (NHEK); experiment: Assay for production of hyaluronic acid in skin epidermal keratinocyte (ELISA); format: cell-based

CC(C)C[C@H](N)C(=O)N[C@@H](CCC(=O)O)C(=O)N[C@@H](Cc1c[nH]cn1)C(=O)N[C@@H](C)C(N)=O [C-terminal-Amidated LEHA] (H-LEHA-NH2)
Amount of Production of Collagen (%) ([1]; peptide 10 μg/ml): 121%

CC(C)C[C@H](N)C(=O)N[C@@H](CC(=O)O)C(=O)N[C@@H](Cc1c[nH]cn1)C(=O)N[C@@H](C)C(=O)O [LDHA, Leu-Asp-His-Ala] (H-LDHA-OH)
amount of production of collagen, result in words ([1]; 1 μg/ml): increased | Amount of Production of Collagen (%) ([1]; peptide 1 μg/ml): 130.5%

CC(C)C[C@H](N)C(=O)N[C@@H](CCC(=O)O)C(=O)N[C@@H](Cc1c[nH]cn1)C(=O)O [LEH, Leu-Glu-His] (H-Leu-Glu-His-OH)
enhancing effect for production of collagen, result in words [1]: Enhancing effect for production of collagen similar to that exhibited by synthesized LEH and LEHA | Amount of Production of Collagen (%) ([1]; peptide 10 μg/ml): 132.2%

CC(C)C[C@H](N)C(=O)N[C@@H](CCC(=O)O)C(=O)N[C@@H](Cc1c[nH]cn1)C(=O)N[C@@H](C)C(=O)O [LEHA, Leu-Glu-His-Ala] (H-LEHA-OH)
enhancing effect for production of collagen, result in words [1]: Enhancing effect for production of collagen similar to that exhibited by synthesized LEH and LEHA | Amount of Production of Collagen (%) ([1]; peptide 10 μg/ml): 137.5% | amount of production of hyaluronic acid, result in words ([2]; 100 or 300 μg/ml, versus control): significantly increased | Amount of Production of Hyaluronic Acid (%) ([2]; peptide 100 μg/ml, 72 hours of culturing, control = 100%): 154%

CC(C)C[C@H](N)C(=O)N[C@@H](CCC(=O)O)C(=O)N[C@@H](CCCCN)C(=O)N[C@@H](C)C(=O)O [LEKA, Leu-Glu-Lys-Ala] (H-LEKA-OH)
amount of production of collagen, result in words ([1]; 10 μg/ml): increased | Amount of Production of Collagen (%) ([1]; peptide 10 μg/ml): 112.2%

CC(=O)N[C@@H](CC(C)C)C(=O)N[C@@H](CCC(=O)O)C(=O)N[C@@H](Cc1c[nH]cn1)C(=O)N[C@@H](C)C(=O)O [N-terminal-Acetylated-LEHA] (Ac-LEHA-OH)
Amount of Production of Collagen (%) ([1]; peptide 10 μg/ml): 124%

LEHAF [LEHAF, Leu-Glu-His-Ala-Phe]
amount of production of collagen, result in words ([1]; 1 or 3 μg/ml): increased | Amount of Production of Collagen (%) ([1]; peptide 1 μg/ml): 119.2% | Amount of Production of Collagen (%) ([1]; peptide 3 μg/ml): 121.0%
